# Assay results: PubChem BioAssay AID894 (National Center for Advancing Translational Sciences (NCATS), 2007)
# The campaign covered roughly 150,000 compounds. About 6,500 (4.3%) were called active. The shares of active, inactive and inconclusive entries below differ from those in the screen. The call rests on the fitted dose curve; in most records, active means well fitted inhibition curve with a large enough effect (not every such curve was filed as active); inconclusive means small, poorly fitted or top-dose-only effect, or another doubt; inactive means no such curve, though single readings can be large or run the other way. Potencies of inconclusive entries are left out as doubtful fits.
# Target: 15-hydroxyprostaglandin dehydrogenase [NAD(+)] (Homo sapiens) (UniProt P15428)
# UniProt P15428, sequence (P15428 whole entry, looked up): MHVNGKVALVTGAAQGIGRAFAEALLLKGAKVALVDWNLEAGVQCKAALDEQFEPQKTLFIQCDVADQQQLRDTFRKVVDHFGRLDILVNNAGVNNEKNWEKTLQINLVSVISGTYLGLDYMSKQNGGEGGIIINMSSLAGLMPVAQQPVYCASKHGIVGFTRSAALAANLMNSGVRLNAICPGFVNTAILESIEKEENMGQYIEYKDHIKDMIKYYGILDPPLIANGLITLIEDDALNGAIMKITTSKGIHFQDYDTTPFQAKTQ
# Assay: qHTS Assay for Inhibitors of HPGD (15-Hydroxyprostaglandin Dehydrogenase)
# Details: purified HPGD, NADH fluorescence kinetic, PGE2 substrate; activity change, negative = inhibition: active compounds read low
# Procedure, shortened: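 20 nM HPGD preincubated 15 min at room temperature with compound in 50 mM Tris-HCl pH 8, 0.01% Tween 20. Started with 1 mM NAD+ and 30 uM prostaglandin E2; NADH fluorescence (360/450 nm) read 5 times over 30-s intervals, last minus first.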
# On the % scale 0 is the no-effect control and ±100 the full control effect; potency means the concentration at half of the fitted maximal effect; tags describe the fitted curve by direction and shape.
Structure (SMILES),"activity change, negative = inhibition",Potency
CC1=C2[C@@H]([C@H](C)CC[C@H]2/C=C(\C)C(=O)O)[C@H](O)C1,inactive: -9.78%,–
COc1ccc(OC)c(NC(=O)CSC2=C(C#N)C(c3ccco3)C3=C(CCCC3=O)N2)c1 (stereo unspecified),inactive: -20.4%,–
Cc1cc2c3nonc3ccc2n1-c1ccccc1,–,"inconclusive [inhibitor, partial curve]"
Cc1ccccc1-n1nnnc1SCc1ncc(-c2ccccc2)o1,inactive: -17.6%,–
O=C(Oc1ccc(Cl)c2cccnc12)N1CCOCC1,–,"inconclusive [inhibitor, single point]"
CCC1CCCCN1C(=O)COC(=O)c1cc2ccccc2cc1O (stereo unspecified),–,"inconclusive [inhibitor, partial curve]"
Cc1cc(C)cc(OCC(=O)OCC(=O)NCc2ccco2)c1,inactive: -5.8%,–
Cc1ccc(CNc2oc(-c3ccco3)nc2C#N)cc1,–,"inconclusive [inhibitor, partial curve]"
O=C(Nc1nc2ccc(Cl)cc2s1)[C@@H]1CCCN1C(=O)c1cccs1,–,"inconclusive [inhibitor, partial curve]"
Cc1ccc(C(=O)N/N=C/c2cc(C)n(-c3ccc(Br)cc3)c2C)cc1[N+](=O)[O-],–,"inconclusive [inhibitor, partial curve]"
CCOC(=O)C1=NN(c2ccccc2)C(=O)/C1=C\c1ccc(N(C)C)cc1,–,active: 12.6 µM
c1cc2c(cc1C(N1CCNCC1)N1CCNCC1)OCO2,inactive: -0.991%,–
COc1cccc(C(=O)Nc2ccc(S(=O)(=O)Nc3nccc(C)n3)cc2)c1,–,active: 28.2 µM
CCOC(=O)c1nsnc1NCCSC(=N)N,–,"inconclusive [inhibitor, partial curve]"
COc1ccc(CCNC(=O)c2ccc(N3CCCC3=O)cc2)cc1OC,inactive: -5.69%,–
C/C(=N\Nc1ccc(C(=O)O)cc1)c1nc2ccccc2n1C,–,active: 15.8 µM
CC(C)CN1CCC2(CC1)CCN(C(=O)c1csnn1)CC2,inactive: -1.88%,–
COc1ccc(CCNC(=O)c2ccc(N3CCCC3=O)cc2)cc1,inactive: -10.8%,–
COc1cccc(OC)c1-c1nnc(-c2cn(C)c3ccccc23)o1,–,"inconclusive [inhibitor, partial curve]"
CC1Cc2ccccc2N1C(=O)COC(=O)CNC(=O)c1ccc(Br)o1 (stereo unspecified),inactive: -12.3%,–
CC(=O)Nc1ccc(NC(=O)C(C)OC(=O)/C=C/c2cn(-c3ccccc3)nc2-c2cccnc2)cc1 (stereo unspecified),–,"inconclusive [inhibitor, partial curve]"
CCOC(=O)N1CCN(C2CC(=O)N(c3ccc(Cl)c(Cl)c3)C2=O)CC1 (stereo unspecified),–,"inconclusive [inhibitor, single point]"
CCN=C1S/C(=C\c2cn(C(C)=O)nc2-c2ccccc2)C(=O)N1CC,–,"inconclusive [inhibitor, partial curve]"
COc1cc(CNn2c(C)n[nH]c2=S)cc(Cl)c1OCc1ccccc1,–,active: 15.8 µM
CCOC(=O)c1cnc(SC)nc1Oc1cccc(NS(=O)(=O)c2ccc(C)cc2)c1,inactive: -7.87%,–
c1ccc2c(Nc3nc4c(s3)CCCC4)cccc2c1,–,"inconclusive [inhibitor, partial curve]"

Structure (SMILES),"activity change, negative = inhibition",Potency
O=C(CCCc1c[nH]c2ccccc12)N1CCN(S(=O)(=O)c2cccs2)CC1,inactive: -2.87%,–
COc1ccc(C2C=C(c3ccc(Cl)cc3)Nc3nc(NC(C)=O)nn32)cc1 (stereo unspecified),–,"inconclusive [inhibitor, partial curve]"
O=C(Nc1cccnc1)c1ccc(COc2cc(Cl)ccc2Cl)o1,–,"inconclusive [inhibitor, single point]"
COc1cc(OC)nc(-n2ncc(Br)c(Br)c2=O)n1,inactive: -0.884%,–
CCOC(=O)c1c(NC(=O)c2ccc(Cl)s2)sc(C)c1C,–,"inconclusive [inhibitor, partial curve]"
COc1ccccc1C1C2=C(COC2=O)Nc2cc3c(cc21)OCO3 (stereo unspecified),–,"inconclusive [inhibitor, partial curve]"
COc1cc(O)c2c(c1)C(=O)c1cc(C)cc(O)c1C2=O,–,"inconclusive [inhibitor, partial curve]"
CCCCn1c(SCC(=O)NCc2ccco2)nc2ccc(N3CCOCC3)cc2c1=O,–,"inconclusive [inhibitor, partial curve, poor fit]"
Cc1cc(C)c(C#N)c(SCc2ccccc2C)n1,inactive: -17.1%,–
C/C(=C(\C#N)C(=O)NCc1ccccc1)N(C)C,–,"inconclusive [inhibitor, partial curve, poor fit]"
C=CCC1CCC(=O)N2CCCC12 (stereo unspecified),inactive: -1.41%,–
Cc1nc(NC(=O)c2ccc(F)cc2)sc1C(=O)Nc1ccc2c(c1)CCC2,–,"inconclusive [inhibitor, partial curve]"
CN(C)NC1CCS(=O)(=O)C1 (stereo unspecified),inactive: -14.9%,–
CC(C)(C)NC(=O)COC(=O)/C=C/c1ccc(F)cc1,inactive: -8.28%,–
COc1ccccc1NC(=S)Nc1ccccc1F,–,"inconclusive [inhibitor, single point]"
CCOC(=O)c1[nH]c2cc(OC)c(OC)cc2c1NC(=O)C(C)N1CCN(Cc2ccccc2)CC1 (stereo unspecified),–,"inconclusive [inhibitor, partial curve]"
Cc1ccc(-c2nc3ccccc3c(=O)n2Cc2ccccc2)cc1,inactive: -3.31%,–
COc1ccc(C(=O)N2CCN(c3nc4cc(C)ccc4cc3C#N)CC2)c(OC)c1,–,"inconclusive [inhibitor, partial curve]"
CC1=NOC2(C1)N(C)c1ccccc1C2(C)C (stereo unspecified),inactive: -5.7%,–
Cc1csc(NC(=O)c2cccn2C)n1,–,"inconclusive [inhibitor, partial curve]"
CCc1c(-c2n[nH]c(=S)n2Cc2ccccc2)csc1C,–,active: 15.8 µM
S=C(NCCc1ccccc1)Nc1ccccn1,inactive: -5.29%,–
C/C=C/c1ccc(OCCCCOc2ccccc2F)c(OC)c1,inactive: -17.1%,–
COc1ccc(/C=C/C(=O)Nc2ccc(-n3nncc3-c3ccc(OC)c(OC)c3)cc2)cc1OC,–,"inconclusive [inhibitor, partial curve]"
O=c1[nH]c(-c2cccnc2)nc2ccccc12,–,active: 17.8 µM
O=S(=O)(c1ccc(F)cc1)c1nc(-c2ccco2)oc1Nc1ccc(F)cc1,inactive: -15.9%,–

Structure (SMILES),"activity change, negative = inhibition",Potency
CCNC(=O)CSc1ncnc2sccc12,inactive: -16.9%,–
O=[N+]([O-])c1ccc2nc(-c3ccc(Cl)cc3)n(OCc3ccccc3)c2c1,inactive: 1.7%,–
CCCC(C(=O)NC1CCCCC1)N(Cc1ccco1)C(=O)CNS(=O)(=O)c1ccccc1 (stereo unspecified),inactive: -3.17%,–
Fc1ccc(/C=C2\CCCC3=C2NC(=S)NC3c2ccc(F)cc2)cc1 (stereo unspecified),–,active: 25.1 µM
N#CC1=C(N2CCCCC2)c2cc3c(n2C1=O)CCCC3,–,active: 25.1 µM
OC(CN1CCN(c2ccccn2)CC1)Cn1c2ccccc2c2ccccc21 (stereo unspecified),–,"inconclusive [inhibitor, partial curve]"
CCc1ccc(OCC(=O)O/N=C(\N)Cc2ccc([N+](=O)[O-])cc2)cc1,inactive: -17.5%,–
COc1ccc(C(=O)Nc2cccc(-c3cc4ccccc4oc3=O)c2)cc1[N+](=O)[O-],–,"inconclusive [inhibitor, partial curve]"
Clc1nc(-c2cccnc2)nc2scc(-c3ccccc3)c12,–,active: 20 µM
O=C(NC(N1CCCC1)C(Cl)(Cl)Cl)c1ccccc1 (stereo unspecified),–,"inconclusive [inhibitor, partial curve]"
Cc1ccn2c(C(=O)N/N=C\c3ccc4c(c3)OCO4)c(C)nc2c1,–,"inconclusive [inhibitor, partial curve]"
Cc1c2c(nc3c(C(=O)NC4CCCC4)cnn13)CCCC2,–,"inconclusive [inhibitor, partial curve]"
Cc1ccc(C(=O)Oc2csc(=S)n2C(=O)c2ccc(C)cc2)cc1,–,active: 5.01 µM
Cc1ccc(O)c(C(CC(=O)N2CCCC2)c2ccccc2)c1 (stereo unspecified),–,active: 7.08 µM
O=S(=O)(c1ccc2nc(SCc3cccc(Cl)c3)[nH]c2c1)N1CCOCC1,–,"inconclusive [inhibitor, single point]"
O=c1[nH]c2c(c(=O)n1Cc1ccccc1)CCC2,–,"inconclusive [inhibitor, single point]"
Cc1c(Cl)cccc1NC(=O)C[C@H]1Sc2ccccc2NC1=O,inactive: -0.669%,–
COc1cc2[nH]c(=O)n(CCCC(=O)NCCc3ccccc3)c(=O)c2cc1OC,–,"inconclusive [inhibitor, partial curve]"
COc1ccc(NC(=O)c2oc3ccc(S(=O)(=O)N4CCC5(CC4)OCCO5)cc3c2C)cc1,inactive: -26.2%,–
Cc1nc2c(C(=O)NCc3ccc4c(c3)OCO4)c[nH]n2c(=O)c1Cl,–,"inconclusive [inhibitor, partial curve]"
CN(C)/C=N/c1c(C#N)nnn1Cc1ccccc1,–,active: 20 µM
Cc1ccc(Cn2cccc(NC(=O)NCc3ccccc3)c2=O)cc1,–,"inconclusive [inhibitor, partial curve]"
Cc1cc(=O)[nH]c(SCC(=O)Nc2nnc(CC(C)C)s2)n1,–,active: 31.6 µM
CCOc1ccc(Nc2oc(-c3ccccc3Cl)nc2C#N)cc1,–,"inconclusive [inhibitor, partial curve]"
